Measurements: paper PMC4336329 (PLoS ONE, 2015)
Out of some 310,000 compounds screened, about 14,000 (4.5%) showed an effect of 50% or more. The effect is printed as a negative number. The list shows a part of the results.

Target: human ether-à-go-go-related gene (hERG) potassium channel (human, UniProt Q12809)
Test: primary screen, population patch clamp on CHO cells stably expressing hERG
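Also: peak tail current of the secondary pulse compared with the same well before compound.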

Chain of human ether-à-go-go-related gene (hERG) potassium channel (Q12809 whole entry, looked up): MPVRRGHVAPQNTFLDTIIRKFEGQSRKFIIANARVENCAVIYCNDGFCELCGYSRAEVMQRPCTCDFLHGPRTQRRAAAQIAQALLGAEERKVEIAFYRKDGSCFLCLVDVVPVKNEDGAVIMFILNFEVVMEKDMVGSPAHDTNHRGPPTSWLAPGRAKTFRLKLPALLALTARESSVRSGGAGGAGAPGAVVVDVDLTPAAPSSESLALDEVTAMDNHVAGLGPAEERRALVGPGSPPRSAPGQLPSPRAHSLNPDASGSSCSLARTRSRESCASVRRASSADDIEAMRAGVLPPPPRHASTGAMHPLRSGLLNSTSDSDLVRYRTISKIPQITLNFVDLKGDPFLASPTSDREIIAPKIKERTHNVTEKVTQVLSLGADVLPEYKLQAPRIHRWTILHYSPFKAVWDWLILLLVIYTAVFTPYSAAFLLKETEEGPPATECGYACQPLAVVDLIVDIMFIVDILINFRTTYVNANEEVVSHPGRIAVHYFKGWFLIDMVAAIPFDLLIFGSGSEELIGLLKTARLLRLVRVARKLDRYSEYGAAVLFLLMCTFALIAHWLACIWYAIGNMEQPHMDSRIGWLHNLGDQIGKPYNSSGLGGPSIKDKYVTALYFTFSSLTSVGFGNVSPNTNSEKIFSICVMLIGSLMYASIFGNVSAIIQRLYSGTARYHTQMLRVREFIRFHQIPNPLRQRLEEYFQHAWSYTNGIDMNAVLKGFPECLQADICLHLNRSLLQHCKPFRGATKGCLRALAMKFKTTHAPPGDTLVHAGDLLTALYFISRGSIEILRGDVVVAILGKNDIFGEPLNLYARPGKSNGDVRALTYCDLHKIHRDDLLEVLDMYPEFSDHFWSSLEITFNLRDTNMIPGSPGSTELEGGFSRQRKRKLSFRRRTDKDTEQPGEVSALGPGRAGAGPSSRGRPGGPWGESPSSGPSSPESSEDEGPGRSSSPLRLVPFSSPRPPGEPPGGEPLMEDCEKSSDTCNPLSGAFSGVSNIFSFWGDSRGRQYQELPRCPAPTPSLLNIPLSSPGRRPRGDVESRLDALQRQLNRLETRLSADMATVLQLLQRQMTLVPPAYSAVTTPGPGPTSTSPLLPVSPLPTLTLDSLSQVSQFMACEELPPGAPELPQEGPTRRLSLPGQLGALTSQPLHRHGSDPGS

Compound | hERG current change (%, negative = inhibition) at 10uM [%]
Cc1nc2nc(C)c(CCC(=O)N3CCC4(CC3)OCCO4)c(C)n2n1 | 0.0738
CCc1ccc(CNC(=O)C2Cc3cc(S(=O)(=O)N4CCCC4)ccc3N2C(C)=O)cc1 (stereo not shown) | -25.9
CCOc1cc(C)nc(NCc2ccccc2)n1 | -3.43
CC(C)n1nc(C(=O)OCC(=O)c2c[nH]c3ccccc23)c2ccccc2c1=O | 0.434
Cc1ccc(-n2c(-c3cccs3)nc3nc4ccccc4nc32)cc1 | 2.4
COC(=O)C1=C(C)NC(=O)C1(Nc1nccs1)C(F)(F)F (stereo not shown) | 7.41
O=C(c1ccccc1C(=O)N1CCN(c2ccc(F)cc2)CC1)N1CCN(c2ccc(F)cc2)CC1 | -73.8
N#Cc1ccccc1OCC(=O)OCCCOC(=O)COc1ccccc1C#N | 10.1
COc1ccc(OC)c(CNC(=O)Cn2nc(C)c3c(C)n(-c4ccc(C)cc4)nc3c2=O)c1 | 3.27
COCCCNc1nc(N)c([N+](=O)[O-])c(NCc2ccccc2)n1 | 13
COCCOCC(O)CN1CCN(c2ccc(C)cc2)CC1.O=C(O)C(=O)O (stereo not shown) | -11.2
CC(C)C(=O)Nc1ccc(-c2nnc(-c3ccccc3)o2)cc1 | 14
O=c1[nH]c(O)c(C=Nc2ccc(Cl)c(C(F)(F)F)c2)c(=O)[nH]1 | 7.57
CC(C)(C)c1cc(NC(=O)COC(=O)c2ccc(O)cc2O)n(-c2ccccc2)n1 | -79.3
COCCCNC(=O)c1cc2c(=O)n3cc(C)ccc3nc2nc1NCC1CCCO1 (stereo not shown) | -71.9
Cc1cc(OCCN2CCCC2)ccc1C(C)C | -22.5
O=C(c1ccc(Cl)cc1Cl)N1CCSCC1 | 15.4
COc1ccc(Cl)c2sc(N(CCN(C)C)C(=O)CCS(=O)(=O)c3ccc(C)cc3)nc12.Cl | -7.51
CCOc1ccc(S(=O)(=O)NC2CCCC2)cc1C | -1.86
Cc1cc(/C=C2\C(=O)NC(=O)N(c3ccc(F)cc3)C2=O)c(C)n1-c1ccc(C(=O)O)cc1 | 20.6
N#C/C(=C\c1coc2ccccc2c1=O)C(N)=S | 14.5
Cc1oc(-c2ccccc2F)nc1CSCC(=O)NC1CCCC1 | 2.35

Compound | hERG current change (%, negative = inhibition) at 10uM [%]
CCc1ccc(-c2nc(CN3CCC(C(=O)N4CCN(c5ccccc5)CC4)CC3)c(C)o2)cc1 | -71.3
CCN(CC(=O)NCc1cccs1)C(=O)/C=C/c1cccc(Cl)c1Cl | 4.92
O=C1c2ccccc2C(=O)N1CCCc1nc(-c2ccccn2)no1 | -5.5
CCOCCc1nnc(NC(=O)C2CC(=O)N(CCc3ccc(F)cc3)C2)s1 (stereo not shown) | 0.628
COc1ccc(-n2c(SCC#N)nc3ccccc3c2=O)cc1 | 17.5
CCCCNC(=S)N1CCN(c2ccccc2Cl)CC1 | -6.08
CCC(c1nnnn1CCOC)N1CCN(c2nc3ccccc3s2)CC1 (stereo not shown) | -34.7
COc1ccc(CNc2ncccn2)cc1OC | 14
Cc1cc(C)c2c(N)c(C(=O)c3ccc(Br)cc3)oc2n1 | 3.77
CC(=O)N/C(=N/c1nc(C)cc(C)n1)Nc1cccc(C)c1C | 3.56
CC(C)c1nnc(NC(=O)CCC(=O)NC2CCCc3ccccc32)s1 (stereo not shown) | 6.9
O=C(CSc1nc2ccc(N3CCOCC3)cc2c(=O)n1CCc1ccccc1)NCC1CCCO1 (stereo not shown) | -47
N#Cc1nc(-c2ccccc2)oc1N1CCCCC1 | -2.67
Cc1nnc(-c2ccco2)c2cn(-c3cccc(Br)c3)nc12 | -1.23
O=C(CS(=O)(=O)c1c[nH]c2ccccc12)Nc1ccc2c(c1)OCCO2 | 18.7
CCOc1ccc(NC(=O)Cn2cc(C(=O)C3CC3)c3ccccc32)cc1 | 1
COc1ccc(CCNC(=O)C(=O)c2cn(CC(=O)N3CCOCC3)c3ccccc23)cc1OC | 3.86
CCN(CC)c1ccc(S(=O)(=O)N2CCOCC2)cc1NC(=O)CSc1n[nH]c(N)n1 | 5.34
CC(C)c1ccc(/C=C/C(=O)Nc2ccc(CN3CCOCC3)cc2)cc1 | -26.7
C=CCC(C=C)S(=O)(=O)c1ccc(C)cc1 (stereo not shown) | 7.28
COc1ccc2cc(C(=O)NCc3ccco3)c(=O)oc2c1 | 26.7
Cc1ccc(S(=O)(=O)/N=C(/Nc2ccc3[nH]c(=O)[nH]c3c2)c2ccc(F)cc2)cc1 | -7.77

Compound | hERG current change (%, negative = inhibition) at 10uM [%]
CN(c1ccc(C(=O)NCc2ccco2)cc1)S(C)(=O)=O | 5.87
O=C(CCn1c(SCC(=O)NCc2ccco2)nc2ccccc2c1=O)NCCc1ccccc1 | -34.5
Cc1cc(C(=O)COc2ccccc2[N+](=O)[O-])c(C)n1C1CC1 | -2.25
CCOC(=O)C1C(=O)NC(N2CCN(c3ccccc3)CC2)=NC1c1ccco1 (stereo not shown) | -5.81
O=C(CSc1ccc(-c2ccc(Br)cc2)nn1)NC1CCCC1 | 11.7
CCCN1CCN(C(=O)c2ccc(-c3ccc([N+](=O)[O-])cc3)o2)CC1 | -78.1
COc1ccc(OC(=O)COc2ccc(Cl)cc2)cc1 | 32.2
O=C(NCc1cc2ccccc2[nH]1)C1CCC(=O)N(CCCN2CCCC2=O)C1 (stereo not shown) | 17.3
O=C(COC(=O)/C=C/c1ccc([N+](=O)[O-])cc1)NCC1CCCO1 (stereo not shown) | -1.77
COc1ccc(CCNC(=O)CN2C(=O)c3cccc4cccc(c34)C2=O)cc1OC | 17.6
COc1ccc(C)cc1NC(=S)NNC(=O)c1ccccc1Cl | 17.1
Cc1noc(C)c1-c1nc(CS(=O)(=O)c2ccccc2)no1 | -4.72
CC(=O)C1=C(O)C(=O)N(CCc2c[nH]c3ccccc23)C1c1ccc(C)cc1 (stereo not shown) | 2.3
N#Cc1ccccc1CN1C(=O)NC(Cc2c[nH]c3ccccc23)C1=O (stereo not shown) | 10.7
O=C(CSc1ncc(-c2ccccc2)n1-c1ccccc1)NCc1ccco1 | -2.21
COc1ccc(CNC(=O)C(c2cccs2)N(Cc2ccco2)C(=O)Cc2cccs2)cc1 (stereo not shown) | -7.58
Cn1nc(-c2ccc(C(=O)NCCO)cc2)c2ccccc2c1=O | 28.3
N#Cc1cccnc1Nc1cccc(Cl)c1 | -11.6
CCC(C)Oc1ccccc1C1CC(=O)NC2=C1C(=O)CCC2 (stereo not shown) | 13.1
O=C(CSc1nncn1-c1cccnc1)Nc1ccccc1C(F)(F)F | 4.9
Clc1ccc(OCCSc2ncccn2)c2ccccc12 | 30.7
O=C(NCC1CCCO1)c1ccc2c(=O)n(-c3ccc(F)cc3)c(=S)[nH]c2c1 (stereo not shown) | 20.4

Compound | hERG current change (%, negative = inhibition) at 10uM [%]
Cc1ccc(S(=O)(=O)NCCC(=O)O)cc1 | 25.6
O=C(CN(C1CCCCC1)S(=O)(=O)c1ccc(Cl)cc1)N1CCOCC1 | -59.5
CCOc1cc(C2NC(=O)NC(c3ccccc3)=C2C(C)=O)ccc1OCC(N)=O (stereo not shown) | 0.596
COc1ccc(Nc2nc(C)cc(=O)[nH]2)c(OC)c1 | -10.5
COc1ccc(C(=O)Cn2cc[n+](C)c2)cc1.[Br-] | 3.79
Cc1cc2nnc(SCC(=O)NCC3CCCO3)n2c2ccccc12 (stereo not shown) | 21.9
CC1=C(C(=O)Nc2ccccc2)C(c2ccco2)n2ncnc2N1 (stereo not shown) | 1.42
CC(Sc1nc2ccccc2c(=O)n1CC1CCCO1)C(=O)Nc1ccc(S(N)(=O)=O)cc1 (stereo not shown) | -47.3
COc1ccc(-c2nc(N)ncc2-c2ccc(Cl)cc2)c(O)c1 | 13.6
CCC(=O)c1ccc(N2CCN(C(=O)c3cc([N+](=O)[O-])ccc3N3CCN(C)CC3)CC2)c(F)c1 | -46.4
S=c1nc(C2CC2)[nH]c2ccccc12 | 20.7
COc1ccc(Cn2nnnc2C(c2cccs2)N2CCN(c3ccc([N+](=O)[O-])cc3)CC2)cc1 (stereo not shown) | -8.98
Cc1noc(C)c1CSCC(=O)N(C)CC(=O)Nc1ccc(Cl)c(C(F)(F)F)c1 | -30.1
COc1cccc(NC(=O)COC(=O)CCC(=O)c2cccs2)c1 | 5.06
CCN(CC)S(=O)(=O)c1cc(NC(=O)Cc2n[nH]c(=O)c3ccccc23)ccc1C | -21.2
O=c1c2cc(-c3ccccc3)sc2ncn1/N=C/c1ccco1 | 8.21
Cn1cc(CC(=O)NCCCN2CCOCC2)c2ccccc21 | 19.5
O=C(C/C(=N/O)c1ccccc1O)C(F)F | 3.01
Cc1cccc(CC(=O)Nc2ccon2)c1 | 11.3
COc1ccc(CCNC(=O)CCNC(=O)N2CC(=O)Nc3ccccc32)cc1OC | 21.7
CSCCC(NC(=O)OCc1ccccc1)C(=O)NCc1cccnc1 (stereo not shown) | 6.06
Cc1ccccc1Nc1cc(=O)oc2ccccc12 | -5.14
